Measurements: PubChem BioAssay AID1963863 (Molecular Pharmacology Branch, DTP, NCI, 2024)
Not every entry of the source has a single result; some have several. Only these are listed. There may be further records. Values that stand side by side repeat one measurement in other runs, samples, wells, individuals or studies. Marks such as [2022-09] give the month of the run. Brackets with × give the number of equal values in this list.

Test system: 931267-113-T-J1-PDC KRAS spheroid with HUVEC/MSC, viability
Experiment: Anticancer human tumor 931267-113-T-J1-PDC patient-derived colon adenocarcinoma cell line growth inhibition [KRAS2]
Details: for viability, T/C: stronger effect = lower value
Source text: Multicellular complex tumor spheroid response to RAS pathway inhibitors in combination with a targeted agents in patient-derived cell lines with oncogenic KRAS variants from multiple cancer types
A high-throughput screen of multi-cell type tumor spheroids was designed to identify active combinations of targeted small molecules and KRAS pathway inhibitors. Complex spheroids include a stromal component modeled by human endothelial cells (HUVEC) and fibroblasts modeled by human mesenchymal stem cells (MSCs). The concentration ranges selected for each drug and investigational agent were based upon clinically achievable concentrations if the clinical Cmax of the agent was known.
Compounds. The drugs and investigational agents: BI-3406 (NSC825286), BAY-293 (NSC824723), batoprotafib (TNO155; NSC825523), sotorasib (AMG 510; NSC818433), MRTX1257 (NSC819558), elimusertib (BAY 1895344; NSC800525), molibresib (GSK525762; NSC774829), temuterkib (LY3214996; NSC803410), venetoclax (NSC766270), alisertib (NSC759677), olaparib (NSC753686), talazoparib (NSC767125), erdafitinib (NSC781556), ipatasertib (NSC767898), cabozantinib (NSC761068), nintedanib (NSC756659), abemaciclib (NSC768073), docetaxel (NSC628503), trametinib (NSC758246), and sapanisertib (NSC764658) were obtained from the National Cancer Institute (NCI) Developmental Therapeutics Program Chemical Repository. The FDA-approved anticancer drug set is available from the Developmental Therapeutics Program. […] The stock solutions were prepared in dimethyl sulfoxide (DMSO, Sigma-Aldrich, St. Louis, MO, cat. D2650) at 800-fold the tested concentration and stored at -70 degrees C prior to their use. All drugs and investigational agents were tested over a range starting from a high concentration at or near the clinical Cmax and decreasing in half-log increments. If the clinical Cmax for an agent had not been determined, the highest concentration tested was 10 microM.
Cell Culture. All cells were maintained in an incubator at 37 degrees C and 5% CO2 with 95% humidity. The PDC lines were cultured according to standard operating procedures established by the NCI PDMR (https://pdmr.cancer.gov/sops/default.htm). Briefly, all PDCs were thawed and cultured in Matrigel-coated flasks prepared with a working solution of 1X Ham's F-12 nutrient mix, without supplementation (Invitrogen, Waltham, MA, cat. 11765054), 100 U/mL penicillin-streptomycin (Invitrogen, cat. 15140122), and 2.5% Matrigel (Corning Inc., Corning, NY, cat. 354248) for the first three passages. All PDCs were cultured in complete DMEM/F-12 media containing advanced DMEM/F-12 (Invitrogen, cat. 12634028), 4.9% defined fetal bovine serum, heat inactivated (HyClone Laboratories Inc., Logan, UT, cat. SH30070.03HI), 389 ng/mL hydrocortisone (Sigma-Aldrich, cat. H4001), 9.7 ng/mL human EGF recombinant protein (Invitrogen, cat. PHG0313), 23.4 microg/mL adenine (Sigma-Aldrich, cat. A2786), 97.3 U/mL penicillin-streptomycin (Invitrogen, cat. 15140122), 1.9 mM L-glutamine (Invitrogen, cat. 25030081), and 9.7 microM Y-27632 dihydrochloride (Tocris Bioscience, Bristol, United Kingdom, cat. 1254). The PDCs were cultured in complete DMEM/F12 media without 9.7 microM Y-27632 dihydrochloride for at least two passages prior to the screen. The established cell line HOP-62 was cultured in RPMI 1640 medium, HEPES (Invitrogen, cat. 22400105) with 10% defined fetal bovine serum (HyClone Laboratories Inc., cat. SH30070.03) and 2 mM L-glutamine (Invitrogen, cat. 25030081). The pooled donor HUVEC were cultured in endothelial cell growth medium 2 (PromoCell, Heidelberg, Germany, cat. C-22011) and the hMSC were cultured in mesenchymal stem cell growth medium 2 (PromoCell, cat. C-28009). For all experiments, HUVEC and hMSC were used at passages </=5, while the malignant cell lines were used at passages </=15. […]
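Note: compound exposure lasted 7 days before the readout.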
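Throughout, for viability, T/C: 100% = DMSO vehicle control viability.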

| SMILES | viability, T/C (compound alone 0.0316 µM) | viability, T/C (compound alone 3.16 µM) | viability, T/C (compound alone 1 µM) | viability, T/C (compound alone 0.1 µM) | further results |
| --- | --- | --- | --- | --- | --- |
| CC1COCCN1c1cc(-c2ccnn2C)c2ccnc(-c3ccn[nH]3)c2n1 (configuration not stated) | 77.4, 63.6, 92.2, 63.7, 69.3% | – | – | – | viability, T/C (compound alone 0.01 µM): 78.7, 70.9, 120, 101, 90.5% |
| COc1cc(OC)cc(N(CCNC(C)C)c2ccc3ncc(-c4cnn(C)c4)nc3c2)c1 | 120, 102, 98.1, 101, 91.3% | 60.8, 68.7, 92.4, 60.9, 75.3% | – | – | – |
| O=C(c1cc(Cc2n[nH]c(=O)c3ccccc23)ccc1F)N1CCN(C(=O)C2CC2)CC1 | – | – | 61.1, 96.4, 91.9, 97.1, 88.1% | – | – |
| COc1cc2nccc(Oc3ccc(NC(=O)C4(C(=O)Nc5ccc(F)cc5)CC4)cc3)c2cc1OC | 99.5, 109, 79.1, 106, 102% | – | – | 86.8, 105, 103, 126, 109% | viability, T/C (compound alone 10 µM): 68.6, 68.3, 56.9, 42.7, 59.9% |
| CC1OCC2(CCN(c3cnc(Sc4ccnc(N)c4Cl)c(N)n3)CC2)C1N (configuration not stated) | – | 51.3 (2×), 50.3, 58.5, 54.5, 56, 82, 78.2, 79.3, 67.9, 90.1% [2021-08] and 69.6, 72.1, 78.3, 56.2, 59.8, 92.7, 77.1, 62.6, 71.2% [2021-09] | 101, 80.8, 85.5, 69.6, 66.7 (2×), 64.2, 83.7, 77.3, 80, 70.1% [2021-08] and 95, 71.8, 72.5, 84.4, 75.2, 80.8, 68.7, 74.7% [2021-09] | 96.3, 92.2 (2×), 82.8, 82, 73.1, 74, 93.6, 79.3, 83, 101% [2021-08] and 78.6, 100, 94.8, 80.1, 74.9, 92.7, 91.7, 81.8% [2021-09] | viability, T/C (compound alone 0.316 µM): 78.2, 70.9, 71.4, 66.7, 73, 60, 82.4 (2×), 78.9, 79.8, 83% [2021-08] and 74.8, 75.2, 73.2, 92.5, 66.4, 73.8, 94.7, 56.4% [2021-09]; viability, T/C (compound alone 10 µM): 67.6, 67.7, 64.7, 62.2, 75.2, 52.3, 76.2, 75.5, 94.7, 74.8, 81.8% [2021-08] and 73.8, 76.8, 89.6, 63.8, 65.2, 68.3, 75.5, 81.3, 64.2% [2021-09] |
| CC(=O)OC12COC1CC(O)C1(C)C(=O)C(O)C3=C(C)C(OC(=O)C(O)C(NC(=O)OC(C)(C)C)c4ccccc4)CC(O)(C(OC(=O)c4ccccc4)C21)C3(C)C (configuration not stated) | – | 94.3, 93.5, 85.6, 69.2, 81% | 87.5, 74.5, 93.8, 101, 84.2% | – | viability, T/C (compound alone 0.01 µM): 72.6, 80.6, 98.8, 86.6, 106% |
| CC(C)NCC(C(=O)N1CCN(c2ncnc3c2C(C)CC3O)CC1)c1ccc(Cl)cc1 (configuration not stated) | – | – | – | 73.3, 86.1, 99.1, 90.5, 91.5% | IC50 (compound alone): > 10 µM, 6.95 µM, 6.41 µM, 7.3 µM, 5.9 µM |
| Cn1ncnc1[C@H]1c2n[nH]c(=O)c3cc(F)cc(c23)N[C@@H]1c1ccc(F)cc1 | – | – | – | 89.2, 72.7, 83.6, 98.3, 87.1% | – |
| CN(C)C/C=C/C(=O)Nc1cc2c(Nc3ccc(F)c(Cl)c3)ncnc2cc1O[C@H]1CCOC1 | 73.1, 61.4, 72.6, 104, 98.4% | – | – | – | viability, T/C (compound alone 0.001 µM): 93.7, 75.1, 79, 107, 95.6%; viability, T/C (compound alone 0.00316 µM): 65.4, 74.8, 90.7, 81.8, 83.4% |
